Experimental data as given in paper PMC11459905, “Identification of SLC25A46 interaction interfaces with mitochondrial membrane fusogens Opa1 and Mfn2” (The Journal of Biological Chemistry, 2024).
Results are given in words; binding and its absence hold for the method and conditions named. For some of these results: Binding seen in cells or lysates may run through a third protein. Some results given as binding are weak or reduced against the parent protein; the word gives no strength. Where a sequence is shown, tags or fusion partners need not be part of it.

The chains behind the UniProt entries cited, without tags or fusion partners. Residues count along the entry.
UniProt O60313, residues 253-960: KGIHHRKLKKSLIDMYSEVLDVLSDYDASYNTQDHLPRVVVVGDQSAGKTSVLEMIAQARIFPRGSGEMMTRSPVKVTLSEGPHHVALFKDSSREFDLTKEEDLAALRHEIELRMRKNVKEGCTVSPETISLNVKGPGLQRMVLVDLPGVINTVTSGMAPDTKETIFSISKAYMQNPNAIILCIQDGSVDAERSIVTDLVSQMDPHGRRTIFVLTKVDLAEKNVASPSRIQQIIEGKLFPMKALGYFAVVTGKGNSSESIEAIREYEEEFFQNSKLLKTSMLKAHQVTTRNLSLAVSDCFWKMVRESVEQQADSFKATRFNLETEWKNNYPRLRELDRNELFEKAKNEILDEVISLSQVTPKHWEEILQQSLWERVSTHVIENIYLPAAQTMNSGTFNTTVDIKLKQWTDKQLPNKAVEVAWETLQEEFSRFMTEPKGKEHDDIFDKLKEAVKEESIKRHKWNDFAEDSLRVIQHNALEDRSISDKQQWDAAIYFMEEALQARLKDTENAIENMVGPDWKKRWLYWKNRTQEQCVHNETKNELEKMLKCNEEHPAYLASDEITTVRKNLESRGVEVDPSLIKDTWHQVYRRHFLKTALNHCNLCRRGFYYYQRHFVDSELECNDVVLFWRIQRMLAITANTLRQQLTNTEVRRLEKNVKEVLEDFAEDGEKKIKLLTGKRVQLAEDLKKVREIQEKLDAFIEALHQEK

Experiments:
[1] = target: T1, Solute carrier family 25 member A46 with C-terminal deca-histidine (SLC25A46-His), wild type (human), Q96AG3; test: pull-down; GDN extracts of P. pastoris; SLC25A46-His held on Ni-NTA resin; binding buffer with 80 mM and elution buffer with 500 mM imidazole; otherwise as the StrepTactin experiment; settings: remark: other sources report otherwise
T1 chain: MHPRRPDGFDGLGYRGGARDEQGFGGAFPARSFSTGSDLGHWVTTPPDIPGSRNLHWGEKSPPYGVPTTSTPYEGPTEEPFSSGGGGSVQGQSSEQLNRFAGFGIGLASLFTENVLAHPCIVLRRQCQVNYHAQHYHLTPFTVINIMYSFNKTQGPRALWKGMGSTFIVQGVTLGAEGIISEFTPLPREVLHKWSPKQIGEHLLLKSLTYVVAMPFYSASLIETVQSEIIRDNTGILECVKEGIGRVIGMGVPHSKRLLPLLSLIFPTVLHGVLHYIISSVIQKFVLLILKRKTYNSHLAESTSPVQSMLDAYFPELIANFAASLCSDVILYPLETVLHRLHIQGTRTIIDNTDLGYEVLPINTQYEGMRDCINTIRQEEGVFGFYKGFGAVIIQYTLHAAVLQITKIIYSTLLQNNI

[2] = target: T2, Mitofusin 2, full length, with C-terminal Twin-Strep tag (Mfn2-Strep) (human), O95140; test: pull-down; GDN extracts of P. pastoris expressing or coexpressing the proteins; Strep-tagged Opa1 or Mfn2 held on StrepTactin XT 4Flow resin in a spin column, 4 °C, 25 mM Hepes, 150 mM NaCl, pH 8.0, washes with 0.1% GDN, elution with 50 mM biotin; Western blot; also with GTPγS, GMPPCP or GDP added to the lysates (no effect on coelution); settings: remark: other sources report otherwise
T2 chain: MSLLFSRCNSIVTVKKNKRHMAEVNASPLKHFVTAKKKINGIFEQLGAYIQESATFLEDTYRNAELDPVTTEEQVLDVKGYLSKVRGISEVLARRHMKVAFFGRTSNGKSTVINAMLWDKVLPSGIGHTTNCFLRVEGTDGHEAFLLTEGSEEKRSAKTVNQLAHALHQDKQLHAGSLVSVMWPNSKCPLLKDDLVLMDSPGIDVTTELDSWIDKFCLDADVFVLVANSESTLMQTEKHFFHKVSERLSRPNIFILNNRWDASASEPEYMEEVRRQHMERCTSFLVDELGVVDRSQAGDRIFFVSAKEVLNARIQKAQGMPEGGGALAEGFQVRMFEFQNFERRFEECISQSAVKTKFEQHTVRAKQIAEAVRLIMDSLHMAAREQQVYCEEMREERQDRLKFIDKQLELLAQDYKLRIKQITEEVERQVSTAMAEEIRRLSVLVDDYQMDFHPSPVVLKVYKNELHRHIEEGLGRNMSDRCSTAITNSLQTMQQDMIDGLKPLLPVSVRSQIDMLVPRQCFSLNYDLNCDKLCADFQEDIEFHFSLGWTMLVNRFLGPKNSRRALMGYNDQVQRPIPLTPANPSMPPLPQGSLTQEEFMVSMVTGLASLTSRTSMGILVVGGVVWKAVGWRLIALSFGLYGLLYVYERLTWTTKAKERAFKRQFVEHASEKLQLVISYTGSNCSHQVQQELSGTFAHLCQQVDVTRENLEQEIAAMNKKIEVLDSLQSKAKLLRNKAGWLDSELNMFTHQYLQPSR

[3] = target: T2, Mitofusin 2, full length, with …; test: cross-linking; purified complex cross-linked with BS3 or BS(PEG)5, lysine-lysine cross-links identified by mass spectrometry; both purified; settings: remark: other sources report otherwise
[4] = target: T3, Mitofusin 2, full length, with C-terminal Twin-Strep tag (Mfn2-Strep) (human) (UniProt O95140); test: pull-down; GDN extracts of P. pastoris expressing or coexpressing the proteins; Strep-tagged Opa1 or Mfn2 held on StrepTactin XT 4Flow resin in a spin column, 4 °C, 25 mM Hepes, 150 mM NaCl, pH 8.0, washes with 0.1% GDN, elution with 50 mM biotin; Western blot; also with GTPγS, GMPPCP or GDP added to the lysates (no effect on coelution)
T3 sequence: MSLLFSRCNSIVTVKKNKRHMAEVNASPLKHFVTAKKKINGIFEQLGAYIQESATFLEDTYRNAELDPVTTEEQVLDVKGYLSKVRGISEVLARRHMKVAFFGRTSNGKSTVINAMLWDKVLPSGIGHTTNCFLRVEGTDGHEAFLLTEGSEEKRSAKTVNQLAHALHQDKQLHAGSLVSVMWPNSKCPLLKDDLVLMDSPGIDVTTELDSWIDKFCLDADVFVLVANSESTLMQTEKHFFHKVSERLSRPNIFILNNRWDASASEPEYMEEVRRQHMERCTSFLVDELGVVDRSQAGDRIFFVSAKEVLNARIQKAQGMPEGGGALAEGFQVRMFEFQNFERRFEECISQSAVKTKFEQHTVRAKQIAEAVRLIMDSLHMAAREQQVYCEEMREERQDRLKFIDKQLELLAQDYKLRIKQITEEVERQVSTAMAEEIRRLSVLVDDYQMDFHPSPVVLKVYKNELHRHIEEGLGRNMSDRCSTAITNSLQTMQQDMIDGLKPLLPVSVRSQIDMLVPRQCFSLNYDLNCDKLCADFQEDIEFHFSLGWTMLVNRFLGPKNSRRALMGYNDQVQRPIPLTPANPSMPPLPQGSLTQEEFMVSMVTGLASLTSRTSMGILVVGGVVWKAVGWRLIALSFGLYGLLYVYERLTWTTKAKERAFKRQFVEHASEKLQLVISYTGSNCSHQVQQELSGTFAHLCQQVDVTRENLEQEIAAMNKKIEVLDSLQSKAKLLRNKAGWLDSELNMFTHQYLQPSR

[5] = target: T4, Mfn2 lacking the two transmembrane segments (Mfn2 (ΔTM)-Strep) (human) (UniProt O95140); test: as above
T4 sequence: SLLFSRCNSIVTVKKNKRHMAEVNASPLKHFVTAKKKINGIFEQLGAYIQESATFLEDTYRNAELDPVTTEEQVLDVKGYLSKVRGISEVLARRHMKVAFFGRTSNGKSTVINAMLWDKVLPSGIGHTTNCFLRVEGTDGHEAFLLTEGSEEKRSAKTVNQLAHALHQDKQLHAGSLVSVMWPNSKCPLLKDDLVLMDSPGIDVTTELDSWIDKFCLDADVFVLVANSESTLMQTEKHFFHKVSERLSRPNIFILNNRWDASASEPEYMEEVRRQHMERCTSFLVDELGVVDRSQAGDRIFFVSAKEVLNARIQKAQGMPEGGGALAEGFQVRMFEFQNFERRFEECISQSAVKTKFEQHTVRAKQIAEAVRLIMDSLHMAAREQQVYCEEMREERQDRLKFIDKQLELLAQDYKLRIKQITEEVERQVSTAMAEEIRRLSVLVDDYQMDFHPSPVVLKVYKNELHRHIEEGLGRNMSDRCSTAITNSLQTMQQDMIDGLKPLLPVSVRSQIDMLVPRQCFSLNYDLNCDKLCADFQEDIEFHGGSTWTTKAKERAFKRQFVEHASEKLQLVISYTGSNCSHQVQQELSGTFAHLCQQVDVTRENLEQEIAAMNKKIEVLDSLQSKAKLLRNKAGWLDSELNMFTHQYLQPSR

[6] = target: Strep-Opa1, purified, used at 2 uM in the binding test with purified SLC25A46-His (human) (UniProt O60313); test: pull-down; purified SLC25A46-His (WT or mutant) incubated with 2 μM Strep-Opa1, StrepTactin binding and elution; input and elution analysed by Western blotting; both purified

B1: Mitofusin 2, full length, with C-terminal Twin-Strep tag (Mfn2-Strep), O95140 1-757 (protein)
chain: MSLLFSRCNSIVTVKKNKRHMAEVNASPLKHFVTAKKKINGIFEQLGAYIQESATFLEDTYRNAELDPVTTEEQVLDVKGYLSKVRGISEVLARRHMKVAFFGRTSNGKSTVINAMLWDKVLPSGIGHTTNCFLRVEGTDGHEAFLLTEGSEEKRSAKTVNQLAHALHQDKQLHAGSLVSVMWPNSKCPLLKDDLVLMDSPGIDVTTELDSWIDKFCLDADVFVLVANSESTLMQTEKHFFHKVSERLSRPNIFILNNRWDASASEPEYMEEVRRQHMERCTSFLVDELGVVDRSQAGDRIFFVSAKEVLNARIQKAQGMPEGGGALAEGFQVRMFEFQNFERRFEECISQSAVKTKFEQHTVRAKQIAEAVRLIMDSLHMAAREQQVYCEEMREERQDRLKFIDKQLELLAQDYKLRIKQITEEVERQVSTAMAEEIRRLSVLVDDYQMDFHPSPVVLKVYKNELHRHIEEGLGRNMSDRCSTAITNSLQTMQQDMIDGLKPLLPVSVRSQIDMLVPRQCFSLNYDLNCDKLCADFQEDIEFHFSLGWTMLVNRFLGPKNSRRALMGYNDQVQRPIPLTPANPSMPPLPQGSLTQEEFMVSMVTGLASLTSRTSMGILVVGGVVWKAVGWRLIALSFGLYGLLYVYERLTWTTKAKERAFKRQFVEHASEKLQLVISYTGSNCSHQVQQELSGTFAHLCQQVDVTRENLEQEIAAMNKKIEVLDSLQSKAKLLRNKAGWLDSELNMFTHQYLQPSR
[1]
  binding: binds

B2: Solute carrier family 25 member A46 with C-terminal deca-histidine (SLC25A46-His), wild type, Q96AG3 1-418 (protein)
chain: MHPRRPDGFDGLGYRGGARDEQGFGGAFPARSFSTGSDLGHWVTTPPDIPGSRNLHWGEKSPPYGVPTTSTPYEGPTEEPFSSGGGGSVQGQSSEQLNRFAGFGIGLASLFTENVLAHPCIVLRRQCQVNYHAQHYHLTPFTVINIMYSFNKTQGPRALWKGMGSTFIVQGVTLGAEGIISEFTPLPREVLHKWSPKQIGEHLLLKSLTYVVAMPFYSASLIETVQSEIIRDNTGILECVKEGIGRVIGMGVPHSKRLLPLLSLIFPTVLHGVLHYIISSVIQKFVLLILKRKTYNSHLAESTSPVQSMLDAYFPELIANFAASLCSDVILYPLETVLHRLHIQGTRTIIDNTDLGYEVLPINTQYEGMRDCINTIRQEEGVFGFYKGFGAVIIQYTLHAAVLQITKIIYSTLLQNNI
[2]
  binding: binds
[3]
  binding: binds

B3: (Δ2-83)SLC25A46-His (domain or fragment, UniProt Q96AG3)
chain: MGGGGSVQGQSSEQLNRFAGFGIGLASLFTENVLAHPCIVLRRQCQVNYHAQHYHLTPFTVINIMYSFNKTQGPRALWKGMGSTFIVQGVTLGAEGIISEFTPLPREVLHKWSPKQIGEHLLLKSLTYVVAMPFYSASLIETVQSEIIRDNTGILECVKEGIGRVIGMGVPHSKRLLPLLSLIFPTVLHGVLHYIISSVIQKFVLLILKRKTYNSHLAESTSPVQSMLDAYFPELIANFAASLCSDVILYPLETVLHRLHIQGTRTIIDNTDLGYEVLPINTQYEGMRDCINTIRQEEGVFGFYKGFGAVIIQYTLHAAVLQITKIIYSTLLQNNI
[4]
  binding: binds

B4: Solute carrier family 25 member A46 with C-terminal deca-histidine (SLC25A46-His), wild type (natural protein, human, UniProt Q96AG3 1-418, looked up)
chain: MHPRRPDGFDGLGYRGGARDEQGFGGAFPARSFSTGSDLGHWVTTPPDIPGSRNLHWGEKSPPYGVPTTSTPYEGPTEEPFSSGGGGSVQGQSSEQLNRFAGFGIGLASLFTENVLAHPCIVLRRQCQVNYHAQHYHLTPFTVINIMYSFNKTQGPRALWKGMGSTFIVQGVTLGAEGIISEFTPLPREVLHKWSPKQIGEHLLLKSLTYVVAMPFYSASLIETVQSEIIRDNTGILECVKEGIGRVIGMGVPHSKRLLPLLSLIFPTVLHGVLHYIISSVIQKFVLLILKRKTYNSHLAESTSPVQSMLDAYFPELIANFAASLCSDVILYPLETVLHRLHIQGTRTIIDNTDLGYEVLPINTQYEGMRDCINTIRQEEGVFGFYKGFGAVIIQYTLHAAVLQITKIIYSTLLQNNI
notes: SLC25A46, human; gene synthesized (GenScript), cloned into pPICZ A; C terminus fused to (G4S)3 linker, TEV cleavage site and deca-histidine; only a pPICZ A (P. pastoris) construct of SLC25A46 is described; also called WT SLC25A46; source: P. pastoris SMD1163, in GDN extract (lysate); also recombinantly expressed and purified; not shown: His10, C-terminal, kept
[5]
  binding: binds
[6]
  binding: binds

B5: SLC25A46 (1-88)-MBP-His: residues 1 to 88 of SLC25A46 fused to MBP and His tag at the C terminus (domain or fragment, UniProt Q96AG3 1-88)
chain: MHPRRPDGFDGLGYRGGARDEQGFGGAFPARSFSTGSDLGHWVTTPPDIPGSRNLHWGEKSPPYGVPTTSTPYEGPTEEPFSSGGGGS
[4]
  binding: no binding
